The results in this text go back to PMC6682311 (ChemMedChem, 2019).

The structures appear in SMILES notation.

The subject of this data set is difibrinated sheep blood. As to conditions: compared to 1% Triton-X; sheep red blood cells, one hour, 37 °C.

In the case of `CCCCCCc1ccc(-c2nc(N)[nH]c2C(F)(F)F)cc1` [Compound 12g, 4-(4-Hexylphenyl)-5-(trifluoromethyl)-1H-imidazol-2-amine], the “concentration effecting 50% lysis” value was found to be 151 µM.

For `CCCCCOc1ccc(-c2nc(N)[nH]c2C(F)(F)F)cc1` [Compound 12j, 4-(4-(Pentyloxy)phenyl)-5-(trifluoromethyl)-1H-imidazol-2-amine], the “concentration effecting 50% lysis” value is given as 159 µM.
